Measurements reported in PubChem BioAssay AID463173 (ICCB-Longwood Screening Facility, Harvard Medical School, 2010).
The campaign covered roughly 52,000 compounds. About 4,300 (8.3%) were called active. No stated cut-off is given here; in the data, active means survival mostly below about 52% (no sharp cut-off); inactive means mostly above about 56%. Some of the results follow.

What follows are molecules tested on DeltatarO mutant (assay: growth inhibition of S. aureus wild type versus tarO mutant, primary screen, teichoic acid synthesis inhibitors, RN4220, OD600 (AID 463173)). Conditions: OD600, 18 h, hits give low values, screened at 18.75 µg/mL (by protocol).
For `Cc1cn2c(=O)cc(COc3ccc(NC(=O)c4ccc(C(C)(C)C)cc4)cc3)nc2s1`, the survival was inactive: 92%.
With `Cc1cccc(NC(=O)C2CCCN2S(=O)(=O)c2cccc3nsnc23)c1C` (configuration not stated) the survival was inactive: 67%.
With `Cn1cc2ccc(N)cc2n1` the survival was inactive: 88%.
`Cc1cccc(C)c1NC(=O)CCSc1nc(-c2ccc3c(c2)OCO3)cc(C(F)(F)F)n1` was tested, and the survival was inactive: 78%.
With `Fc1ccccc1C(NCCc1ccc(Cl)cc1)c1nnc(-c2ccccc2)o1` (configuration not stated) the survival was active: -9%.
`O=C(Cn1nc(-c2ccccc2)ccc1=O)NCC1COCCO1` (configuration not stated) was tested, and the survival was inactive: 92%.
For `COc1ccccc1NC(=O)CN(C)S(=O)(=O)c1cccc2cccnc12`, the survival was inactive: 103%.
In the case of `Cc1ccc(Nc2ccc(N3CCN(C(=O)c4cccc([N+](=O)[O-])c4)CC3)nn2)cc1`, the survival is reported as inactive: 85%.
With `O=C(CSc1ncc2c(n1)-c1ccccc1N(Cc1ccc(Cl)cc1)S2(=O)=O)c1ccc(Cl)cc1` the survival was inactive: 92%.
With `CCOC(=O)c1ccc(NC(=O)CN2C(=O)C(C)(C)c3ccccc32)cc1` the survival was inactive: 115%.
For `CCc1nc(C)ccc1O`, the survival was inactive: 62%.
`Cc1ccc(C)c(NC(=O)c2cnn(-c3ccc(F)cc3F)c2C2CCNCC2)c1` was tested, and the survival was inactive: 83%.
With `COc1ccc(NC(=O)CCS(=O)(=O)c2cc3c(cc2C)NC(=O)CO3)cc1Cl` the survival was inactive: 100%.
For `CCCc1cnc2c(c1SCC(=O)Nc1ccc([N+](=O)[O-])cc1)c(=O)n(C)c(=O)n2C`, the survival was inactive: 66%.
In the case of `CCOC(=O)c1ccccc1NC(=O)N(Cc1ccc(CC)cc1)Cc1cn[nH]c1-c1ccc(OC)cc1`, the survival is reported as inactive: 55%.
`Cc1ccc(C2CC(=O)n3nc(-c4ccc(F)cc4)nc3S2)cc1` (configuration not stated) was tested, and the survival was inactive: 80%.
With `Cc1cccc(NC(=O)c2cccc(N3CCCS3(=O)=O)c2)c1` the survival was inactive: 78%.
`O=C(COc1ccc(F)cc1)Nc1ccc(OCc2cc(=O)n3ccsc3n2)cc1` was tested, and the survival was inactive: 80%.
With `Cc1ccccc1NC(=O)Cn1c(=O)n(CCC(=O)N2CCc3ccccc3C2)c(=O)c2ccccc21` the survival was inactive: 86%.
With `Cc1ccc(CNC(=O)CN2Cc3ccccc3C2=O)cc1` the survival was inactive: 87%.
For `COc1ccc(NS(=O)(=O)c2cc(-c3onc(C)c3C)ccc2C)c(OC)c1`, the survival was inactive: 89%.
`CCC1CN(C(=O)N2CCC(C(=O)NCCCc3ccccc3)CC2)c2cc(C)ccc2O1` (configuration not stated) was tested, and the survival was inactive: 72%.
`CN(Cc1ccccc1)C(=O)CSc1c2c(nc3ccc(Cl)cc13)CCCC2` was tested, and the survival was active: 0%.
`O=C(c1cccnc1Nc1ccccc1F)N1CCCCC1` was tested, and the survival was inactive: 108%.
With `CNc1nc(SCC(=O)OC)nc(N2CCOCC2)n1` the survival was inactive: 100%.
With `Cc1ccc(-c2c(CN3CCN(c4cccc(C)c4C)CC3)csc2C)cc1` the survival was active: 21%.
With `COc1ccc(-n2nc(C(=O)NCCc3ccc(Cl)cc3)c3c4ccccc4n(C)c3c2=O)cc1` the survival was inactive: 71%.
In the case of `COc1ccc(C2c3c(-c4ccccc4)n[nH]c3C(=O)N2c2ccc(C(=O)O)cc2)c(OC)c1` (configuration not stated), the survival is reported as inactive: 96%.
`Cc1ccc(NC(=O)Cn2c(=O)n(CCC(=O)N3CCc4ccccc4C3)c(=O)c3ccccc32)c(C)c1` was tested, and the survival was inactive: 105%.
With `COc1cc(NC(=O)Cn2c(-c3ccccc3)cc(C(C)=O)c2C)cc(OC)c1` the survival was inactive: 83%.
In the case of `Cc1ccc(-c2cnc(C3CC3)o2)cc1S(=O)(=O)Nc1cccc(C#N)c1`, the survival is reported as inactive: 123%.
With `Cc1nc2c3ccccc3nc(NNC(=O)CCC(=O)O)n2n1` the survival was inactive: 94%.
For `Cc1ccc(NC(=O)CN2C(=O)CCSc3ccccc32)c(C)c1`, the survival was inactive: 79%.
For `COc1ccc(CCNC(=O)c2ccc3c(c2)nc(C)n3-c2ccc(Br)cc2)cc1OC`, the survival was inactive: 54%.
With `O=C(O)c1ccc(NC(=O)c2ccc(Cl)c(S(=O)(=O)N3CCCCCC3)c2)cc1` the survival was inactive: 131%.
`CN(C1CCCCC1)S(=O)(=O)c1ccc2c(c1)c(=O)c(C(=O)N1CCN(c3ccccc3)CC1)cn2C` was tested, and the survival was inactive: 86%.
With `O=S(=O)(NCCS(=O)(=O)N1CCN(c2ccccc2)CC1)c1ccccc1` the survival was inactive: 81%.
In the case of `COC(=O)c1ccc(NC(=O)C(C)Sc2nc(=O)cc(N)n2CCc2ccccc2)cc1` (configuration not stated), the survival is reported as inactive: 122%.
`CCC(=O)Nn1cnc2c(c1=O)C1(CCCCC1)Cc1ccccc1-2` was tested, and the survival was inactive: 62%.
In the case of `Cc1nn(CCC(=O)Nc2ccc(Cl)cc2)c(C)c1S(=O)(=O)N1CCCCC1`, the survival is reported as inactive: 122%.
`COc1ccccc1Cn1cc(C(=O)c2ccccc2)c(=O)c2cc(OC)c(OC)cc21` was tested, and the survival was active: 23%.
`COc1ccc(-c2cc(C(=O)Nc3cc(C(F)(F)F)ccc3Cl)no2)cc1` was tested, and the survival was inactive: 47%.
`N#CC1=C(N)OC2=C(C(=O)CCC2)C1c1ccoc1` (configuration not stated) was tested, and the survival was inactive: 74%.
With `CCOc1ccc(C(=O)Nc2ccc(-c3cc4ccccc4oc3=O)cc2)cc1Br` the survival was inactive: 84%.
In the case of `CN(C)c1ccc(CNC(=O)C2CCN(c3nnc(-n4cccc4)s3)CC2)cc1`, the survival is reported as inactive: 73%.
`O=C(Nc1ccc(Cl)cc1Cl)c1cc(S(=O)(=O)NCc2ccc3c(c2)OCO3)ccc1F` was tested, and the survival was inactive: 94%.
With `Cn1c(=O)c2c(nc3n2Cc2c(Cl)cccc2N3CCNC(=O)C2CCC2)n(C)c1=O` the survival was inactive: 98%.
In the case of `Cc1ccccc1NC(=O)c1cc2c([nH]c1=O)CC(C)(C)CC2=O`, the survival is reported as inactive: 92%.
For `COCCNC(=O)CSc1c(C)cnc2c1c(=O)n(C)c(=O)n2C`, the survival was inactive: 85%.
With `Cc1ccc(NC(=O)Cn2cnc3c(oc4ccccc43)c2=O)cc1Cl` the survival was inactive: 82%.
`COc1ccc(NC(=O)CCCOc2cc(=O)n(C)c3ccccc23)c(OC)c1` was tested, and the survival was inactive: 145%.
`Cn1c(NCc2cccc(Cl)c2)nc2ccccc21` was tested, and the survival was inactive: 104%.
In the case of `CCCn1c2ccccc2c2cnn(CC(=O)NCCc3ccc(S(N)(=O)=O)cc3)c(=O)c21`, the survival is reported as inactive: 130%.
For `CC1CCC(=O)C(C2(O)C(=O)Nc3ccccc32)C1` (configuration not stated), the survival was inactive: 93%.
With `CCc1cccc(NC(=O)C2CCN(S(=O)(=O)c3ccc(Br)s3)CC2)c1` the survival was inactive: 93%.
For `COc1cc(OC)c(NC(=O)C2=C(C)C(=O)OC23CCN(C(C)=O)CC3)cc1Cl`, the survival was inactive: 75%.
In the case of `Cc1ccc(CSc2nc3cccnc3n2Cc2ccc(C(=O)NC3CC3)cc2)cc1`, the survival is reported as inactive: 75%.
With `O=C(NCc1ccccc1)c1cccn1-c1nnc(N2CCCCC2)s1` the survival was inactive: 92%.
For `Cc1ccc(C)c(NC(=O)Nc2cc3c(cc2N2CCCCC2)n(C)c(=O)n3C)c1`, the survival was inactive: 90%.
With `COc1ccc(Cn2c(C(=O)O)c(CNCc3ccco3)c3ccc(C)cc32)cc1` the survival was inactive: 83%.
For `O=C1Nc2ccc(S(=O)(=O)Nc3ccccc3)c3cccc1c23`, the survival was inactive: 101%.
With `CCSc1nnc(C2CCCN(Cc3cccnc3)C2)n1C(C)C` (configuration not stated) the survival was inactive: 80%.
`CCOc1ccccc1CNC(=O)c1cnn(-c2ccc(C)cc2)c1-n1cccc1` was tested, and the survival was active: 37%.
With `Nc1n[nH]c(CCc2ccccc2)n1` the survival was inactive: 93%.
For `CC1CCCCN1CCNC(=O)c1ccc(Cn2c(SCc3ccccc3)nc3cccnc32)cc1` (configuration not stated), the survival was inactive: 116%.
`Cc1nn(-c2ccc(N3CCOCC3)nn2)c(C)c1CCC(=O)NCc1ccc(Cl)cc1` was tested, and the survival was inactive: 107%.
In the case of `O=C(COc1ccc(Cl)cc1)N1CCCCC1`, the survival is reported as inactive: 83%.
`CCS(=O)(=O)c1ncc(Cl)c(C(=O)Nc2ccc(S(=O)(=O)N(C)c3ccccc3)cc2)n1` was tested, and the survival was active: 0%.
In the case of `Cn1c(=O)c2c(n3nnnc13)-c1ccccc1CC21CCCC1`, the survival is reported as inactive: 110%.
In the case of `Cc1cccc(C)c1Nc1sc(C(=O)c2ccccc2)c(N)c1S(=O)(=O)c1ccccc1`, the survival is reported as inactive: 92%.
In the case of `CCN1CCN(C(C)C(=O)NC(c2ccccc2)c2ccccc2)CC1` (configuration not stated), the survival is reported as inactive: 78%.
For `COc1ccc2nc3sc(C(=O)NCCc4ccc(Cl)cc4)cc3cc2c1`, the survival was inactive: 103%.
With `COc1ccccc1C(=O)Nc1nnc(SCc2cc(=O)c3ccccc3[nH]2)s1` the survival was inactive: 96%.
For `CCOc1ccc(NC(=O)c2cc3cc4ccc(C)cc4nc3o2)cc1`, the survival was inactive: 83%.
In the case of `Brc1cccc(-c2nnn3c2nc(NC2CCCCC2)c2ccccc23)c1`, the survival is reported as inactive: 64%.
`N#C/C(=C\c1cn(CC(=O)N2CCCC2)c2ccccc12)C(=O)NC1CC1` was tested, and the survival was inactive: 75%.
With `Cc1ccc(-n2c(=O)c3ccc(C(=O)NCc4ccco4)cc3n(Cc3ccccc3Cl)c2=O)cc1` the survival was inactive: 99%.
`CCOC(=O)c1c(-c2cccs2)csc1NC(C)=O` was tested, and the survival was inactive: 69%.
With `O=C(CSc1ncccn1)N1CCc2ccccc2C1` the survival was inactive: 93%.
In the case of `COc1cccc(C=Nc2ccc3c(c2)ncn3C)c1OC`, the survival is reported as inactive: 84%.
With `Cc1ccc(C(=O)NCC(c2ccc(Cl)cc2)N2CCCCC2)cc1` (configuration not stated) the survival was inactive: 64%.
`COCCCNC(=O)CCCn1c(SCC(=O)c2ccc(Br)cc2)nc2c(sc3ccccc32)c1=O` was tested, and the survival was inactive: 58%.
For `CCc1ccc(NC(=O)C2CCCN(S(=O)(=O)c3ccc4c(c3)oc(=O)n4C)C2)cc1` (configuration not stated), the survival was inactive: 89%.
`CCOc1ccc(C(=O)N2CC(=O)Nc3ccc(C)cc3C2c2ccc(F)cc2)cc1OCC` (configuration not stated) was tested, and the survival was inactive: 67%.
With `COc1cccc(CNC(=O)c2cccc(N3CCCS3(=O)=O)c2)c1` the survival was inactive: 79%.
With `Cc1ccc(Cl)c2sc(NC(=O)c3ccc(S(=O)(=O)N4CCCC4)cc3)nc12` the survival was inactive: 63%.
For `Cc1ccc(CNc2ccc(N3CCOCC3)cc2)cc1`, the survival was inactive: 78%.
`Cc1cc(Nc2ccccc2C)c2cccc(C)c2n1` was tested, and the survival was inactive: 62%.
For `CCC(C)n1c(SCC(=O)Nc2ccccc2C(=O)OC)nc2ccsc2c1=O` (configuration not stated), the survival was active: 17%.
In the case of `O=C(NCc1c(-n2cccc2)sc2c1CCCC2)Nc1cccc(C(F)(F)F)c1`, the survival is reported as inactive: 75%.
In the case of `Cn1c(Cc2ccccc2)nnc1SCC#N`, the survival is reported as inactive: 97%.
With `O=C(CSc1nccn1Cc1ccc2c(c1)OCO2)Nc1ccccc1F` the survival was inactive: 83%.
